According to PubChem BioAssay AID624417 (National Center for Advancing Translational Sciences (NCATS), 2012):
The campaign covered roughly 410,000 compounds. About 6,400 (1.6%) were called active. Inconclusive means that the source gave no clear call. Such entries were picked first, then a sample of the others. Calls come from the whole dose curve; as a rule, active = well fitted inhibition curve with a large enough effect; inconclusive = small, poorly fitted or top-dose-only effect; inactive = no such curve, though single readings can be large or run the other way. Where the call is inconclusive, the potency comes from a doubtful curve fit.

What follows are compounds tested against Glucagon-like peptide 1 receptor (Homo sapiens) (UniProt P43220) (assay: qHTS of GLP-1 Receptor Inverse Agonists (Inhibition Mode)). Conditions: HEK293 GLP-1R CRE-luciferase, luminescence, 24 h, GLP-1R form is constitutively active; series mostly up to 38.3 µM.
UniProt P43220, sequence (P43220 whole entry, looked up): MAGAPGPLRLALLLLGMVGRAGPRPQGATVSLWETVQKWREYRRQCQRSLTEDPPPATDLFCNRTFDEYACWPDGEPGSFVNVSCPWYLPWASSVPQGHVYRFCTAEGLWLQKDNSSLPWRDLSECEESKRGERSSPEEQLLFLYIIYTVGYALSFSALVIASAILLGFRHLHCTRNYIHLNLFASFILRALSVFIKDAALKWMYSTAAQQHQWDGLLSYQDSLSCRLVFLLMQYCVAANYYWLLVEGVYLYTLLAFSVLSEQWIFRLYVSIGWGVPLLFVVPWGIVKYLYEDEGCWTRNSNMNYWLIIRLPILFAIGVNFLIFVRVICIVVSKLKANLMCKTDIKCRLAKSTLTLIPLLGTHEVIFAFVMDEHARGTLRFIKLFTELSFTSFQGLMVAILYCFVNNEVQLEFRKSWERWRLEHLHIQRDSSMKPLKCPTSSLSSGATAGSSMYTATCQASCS
How it was run: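 Seeding at 200 cells/uL, 12 h culture, 24 hr compound treatment, then luciferase reagent and a luminescence read; cells are HEK293 stably expressing a constitutively active GLP-1R plus cAMP-responsive luciferase.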
Note: nearly all actives have a fitted effect of over 55% in size.
Potency is the fitted concentration of half-maximal effect; tags give direction and shape of the fitted curve.

Potency, inconclusive:
O=C(Nc1ccc(Cl)cc1C(=O)NCc1cccnc1)c1ccc(Cl)cc1Cl 28.2 µM [inhibitor, single point]
O=C(CCSc1ccccc1Cl)Nc1cccc([N+](=O)[O-])c1 10 µM [inhibitor, single point]
O=C(CSC1=NCCN1)NC1CCCCCC1 20 µM [inhibitor, single point]
COc1cccc(NC(=O)c2c(C)nn(-c3ccccc3)c2Cl)c1 8.91 µM [inhibitor, partial curve, poor fit]
O=C(CC1C(=O)NCCN1Cc1ccc(-c2ccccc2)cc1)NCC1CC1 (stereo not given) 10 µM [inhibitor, single point]
COC(=O)C1=NN(c2ccccc2)C2(S1)SC(C(C)=O)=C(C)N2c1ccccc1 (stereo not given) 25.1 µM [inhibitor, single point]
CCC(C)(C)C1CCC(NC(=O)N2CCN(c3ccccc3O)CC2)CC1 (stereo not given) 1.58 µM [inhibitor, full curve]
CCCCn1nc2cc(C(=O)NCCc3ccc(C)cc3)ccc2c1OCC 12.6 µM [inhibitor, single point]
COc1ccc(N2CCN(CCCNC(=O)Cn3c(-c4cccs4)cc4ccccc43)CC2)cc1 8.91 µM [inhibitor, partial curve, poor fit]
FC(F)(F)c1cccc(Cc2noc(CN3C[C@@H]4CCC[C@H]3C4)n2)c1 10 µM [inhibitor, partial curve, poor fit]
O=C(Nc1ccc(-c2ccc(N3CCCCC3)nn2)cc1)c1ccco1 12.6 µM [inhibitor, single point]
CCCOC(=O)c1ccc(NC(=O)/C=C/c2cccs2)cc1 12.6 µM [inhibitor, single point]
COc1ccc(S(=O)(=O)N2CCCCC2c2cc(C(=O)NCc3ccccc3)no2)cc1 (stereo not given) 22.4 µM [inhibitor, single point]
CNC(=O)c1sccc1SCc1ccc(Cl)cc1Cl 10 µM [inhibitor, partial curve, poor fit]
CCOC(=O)C(Cc1ccc(O)cc1)NC(=O)c1cc2c(cn1)[nH]c1ccccc12 (stereo not given) 28.2 µM [inhibitor, single point]
CCNc1nc(NCC)nc(SCCOC(=O)Nc2ccc(Cl)cc2Cl)n1 28.2 µM [inhibitor, single point]
Fc1cccc(Cl)c1CSc1ccc(-c2ccco2)nn1 28.2 µM [inhibitor, single point]
Cc1cc(C)c2cc(C#N)c(NCCNC(=S)NCCCN3CCOCC3)nc2c1 8.91 µM [inhibitor, single point]
CN(C)c1ccc(CN2CCC(C(=O)NC(c3ccc(Cl)cc3)c3cnccn3)CC2)cc1 (stereo not given) 20 µM [inhibitor, single point]
O=C1C=C(c2cccc(OCc3ccccc3)c2)C[C@@H](c2ccc3c(c2)OCO3)C1 14.1 µM [inhibitor, single point]
Cn1cc(S(=O)(=O)N2CCOCC2)cc1C(=O)Nc1ccc(Cl)c(C(F)(F)F)c1 28.2 µM [inhibitor, single point]
COC(=O)c1[nH]c2c(c1C)C(=O)CC(c1cc(OC)ccc1OC)C2 (stereo not given) 0.891 µM [inhibitor, full curve, poor fit]
Cc1cccc(/C(N)=N/OC(=O)Cc2ccccc2)c1 28.2 µM [inhibitor, single point]
CCOc1ccc(OCC)c(NS(=O)(=O)c2ccc(-c3coc(C)n3)cc2)c1 1.12 µM [inhibitor, full curve, poor fit]
COc1ccc(NC(=O)c2c(NC(=O)c3ccc(Br)cc3)sc3c2CCCC3)cc1 22.4 µM [inhibitor, single point]
O=C(CCCN1C(=O)/C(=C/c2cccc(Br)c2)SC1=S)NCCCN1CCOCC1 1.78 µM [inhibitor, partial curve, poor fit]
Cc1cc(Cl)ccc1NC(=S)NCCC(c1ccccc1)c1ccccc1 6.31 µM [inhibitor, partial curve, poor fit]
C/C(=N\NC(=O)c1cccc(O)c1)c1cccc(NC(=O)c2ccc(F)cc2)c1 11.2 µM [inhibitor, single point]
O=C(c1ccc2c(c1)OCO2)C1CCCN(Cc2ccc3nsnc3c2)C1 (stereo not given) 14.1 µM [inhibitor, single point]
O=[N+]([O-])c1ccc(S(=O)(=O)NCC2COc3ccccc3O2)cc1 (stereo not given) 11.2 µM [inhibitor, single point]
CCOC(=O)/C=C1\SCC(=O)N1CCOc1cccc(Br)c1 3.16 µM [inhibitor, partial curve, poor fit]
Cc1ccc2nc(NC(=O)CN(C)S(=O)(=O)c3cccc4nsnc34)sc2c1 0.501 µM [inhibitor, full curve, poor fit]
Cc1cc(OCC(O)CN2CCCC2)ccc1C(C)C (stereo not given) 28.2 µM [inhibitor, single point]
COc1ccc(N/C(C)=C/C(=S)Nc2ccccc2)cc1 10 µM [inhibitor, single point]
O=C(Nc1ccccc1C(=O)NCCCn1ccnc1)c1ccc(Cl)cc1Cl 28.2 µM [inhibitor, single point]
N#CC(OC(=O)c1ccccc1)c1cccc([N+](=O)[O-])c1 (stereo not given) 28.2 µM [inhibitor, single point]
CCN(c1ccccc1)S(=O)(=O)c1cccc(C(=O)NCc2ccccc2CN2CCOCC2)c1 8.91 µM [inhibitor, partial curve, poor fit]
CCN(Cc1ccccc1)S(=O)(=O)c1ccc2c(c1)CC(C)N2C(=O)C1CCC1 (stereo not given) 28.2 µM [inhibitor, single point]
CCOC(=O)c1nc(C)nc(Sc2n[nH]c(-c3ccccc3)n2)c1C 11.2 µM [inhibitor, partial curve, poor fit]
CC1(C)Cc2cccc(OCC(=O)N3CCN(c4ccc(F)cc4)CC3)c2O1 12.6 µM [inhibitor, single point]
Oc1ccc(/C=C/c2cc(O)cc(O)c2)cc1 28.2 µM [inhibitor, single point]
CC(C)(C)c1ccc(Cn2c(=N)n(CC(O)c3ccco3)c3ccccc32)cc1 (stereo not given) 7.08 µM [inhibitor, partial curve, poor fit]
COC(=O)c1ccc(Oc2nc(C)cc(Oc3ccccc3)n2)cc1 7.08 µM [inhibitor, partial curve, poor fit]
CCCCn1c(NCc2cc(Cl)ccc2O)nc2ccccc21 11.2 µM [inhibitor, single point]
COc1cc(C(=O)N2CCc3c([nH]c4ccccc34)C2c2ccc(C)cc2)cc(OC)c1OC (stereo not given) 11.2 µM [inhibitor, single point]
CN1CCN(Cn2cc(/C=C/C(=O)c3ccccc3)c3ccccc32)CC1 22.4 µM [inhibitor, single point]
Cc1ccc(S(=O)(=O)Nc2ccc3c(c2)OCCO3)cc1 31.6 µM [inhibitor, single point]
CC(C)N1CCc2c(sc(NC(=O)c3ccc(S(=O)(=O)N4CCc5ccccc54)cc3)c2C(N)=O)C1 11.2 µM [inhibitor, partial curve, poor fit]
CC1CCCN(CC(O)COc2ccc(Cl)cc2)C1 (stereo not given) 7.08 µM [inhibitor, partial curve, poor fit]
Cc1ccc(/C=C/C(=O)N2CCN(S(=O)(=O)c3ccc(C)c(C)c3)CC2)o1 28.2 µM [inhibitor, single point]

Potency, inactive:
CN(CC(=O)Nc1ccc(F)cc1)C(=O)COC(=O)c1ccc(-c2ccccc2)cc1
Cc1cc(NC(=O)Nc2nnc(N(C)Cc3ccccc3)s2)ccc1Br
CN(C)Cc1c(O)ccc2c1O/C(=C\C=C\c1ccccc1)C2=O
CC(C)(C)c1ccc(C(=O)Nc2ccc(N3CCOCC3)cc2)cc1
O=C(c1ccc(N2C(=O)c3ccccc3C2=O)cc1)N1CCCCC1
CC(C)(C)n1nnnc1C(c1cc2ccccc2o1)N1CCOCC1 (stereo not given)
Brc1ccc(-c2ccc(/C=N/Nc3nc4ccccc4[nH]3)o2)cc1
Cc1ccc2onc(CC(=O)Nc3ccc(C(C)C)cc3)c2c1
Cc1ccc2c(c1)N(CCC(=O)NCc1ccccc1Cl)C(=O)CO2
Cc1ccc(N(CC(=O)Nc2cccc(Cl)c2)S(=O)(=O)c2cccs2)cc1
O=C(Nc1cccc(-c2nnc(-c3ccccc3)o2)c1)C1CC1
C[C@H]1CNC(=O)c2c(C(=O)N3CCN(C(=O)OC(C)(C)C)CC3)ncn21
O=C1Cc2cccc(=O)c(O)c2C(=O)O1
Cc1cc(=O)oc2c3c4c(cc12)OCCN4CCC3
COc1ccccc1N1CCN(CC(O)COc2c(OC)cccc2OC)CC1 (stereo not given)
